Reference: publication PMC4336329 (PLoS ONE, 2015)
The whole screen tested about 310,000 compounds, of which about 14,000 (4.5%) showed an effect of 50% or more. The effect is printed as a negative number. This is one part of the list.

Molecular target: human ether-à-go-go-related gene (hERG) potassium channel (human, UniProt Q12809)
Assay: primary screen, population patch clamp on CHO cells stably expressing hERG
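Also: peak tail current of the secondary pulse compared with the same well before compound.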

Chain of human ether-à-go-go-related gene (hERG) potassium channel (Q12809 whole entry, looked up): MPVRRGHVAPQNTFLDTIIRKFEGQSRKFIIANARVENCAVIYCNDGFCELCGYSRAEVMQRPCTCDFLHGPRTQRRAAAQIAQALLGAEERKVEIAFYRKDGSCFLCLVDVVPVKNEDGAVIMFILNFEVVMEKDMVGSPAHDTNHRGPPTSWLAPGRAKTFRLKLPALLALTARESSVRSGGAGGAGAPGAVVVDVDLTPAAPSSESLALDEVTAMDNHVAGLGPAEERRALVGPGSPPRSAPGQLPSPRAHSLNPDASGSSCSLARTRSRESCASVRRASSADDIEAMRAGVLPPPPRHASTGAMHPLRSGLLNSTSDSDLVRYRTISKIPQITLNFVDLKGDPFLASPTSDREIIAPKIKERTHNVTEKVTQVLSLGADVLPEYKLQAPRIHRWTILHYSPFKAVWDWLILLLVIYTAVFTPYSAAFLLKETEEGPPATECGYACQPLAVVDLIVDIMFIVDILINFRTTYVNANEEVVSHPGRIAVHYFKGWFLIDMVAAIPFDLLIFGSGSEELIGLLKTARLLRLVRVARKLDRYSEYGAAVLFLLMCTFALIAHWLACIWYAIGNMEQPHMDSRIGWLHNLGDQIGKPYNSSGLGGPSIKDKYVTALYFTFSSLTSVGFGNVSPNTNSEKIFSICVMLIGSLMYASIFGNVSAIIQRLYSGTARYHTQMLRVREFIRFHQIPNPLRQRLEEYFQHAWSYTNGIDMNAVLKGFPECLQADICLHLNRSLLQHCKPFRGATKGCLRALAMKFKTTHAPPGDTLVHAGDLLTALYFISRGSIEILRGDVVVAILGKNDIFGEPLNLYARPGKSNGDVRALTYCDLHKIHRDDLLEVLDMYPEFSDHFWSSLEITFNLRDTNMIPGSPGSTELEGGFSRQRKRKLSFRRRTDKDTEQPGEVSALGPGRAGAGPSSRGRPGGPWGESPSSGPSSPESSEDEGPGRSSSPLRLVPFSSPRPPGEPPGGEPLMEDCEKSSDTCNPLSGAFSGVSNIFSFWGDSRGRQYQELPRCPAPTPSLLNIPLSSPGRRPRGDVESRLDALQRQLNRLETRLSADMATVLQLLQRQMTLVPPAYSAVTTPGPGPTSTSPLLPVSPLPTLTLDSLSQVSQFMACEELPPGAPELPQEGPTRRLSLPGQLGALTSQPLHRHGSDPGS

In order of falling “hERG current change (%, negative = inhibition) at 10uM” value:
1. O=C(O)CC1COc2ccccc2N1C(=O)c1ccccc1Cl (stereo not shown)  31.3%
2. O=S(=O)(O)c1cc2oc(-c3ccccc3)nc2c2ccccc12  27.9%
3. Cc1ccc(CCNS(=O)(=O)c2ccc3c(c2)NC(=O)C(C)C(=O)N3)cc1 (stereo not shown)  22.7%
4. COc1ccc(/C=C/C(O)=C2/C(=O)NC3(C)CC2c2ccccc2O3)c(OC)c1OC (stereo not shown)  21.9%
5. CCOc1ccc(-n2c(O)c(C=NCCCn3ccnc3)c(=O)[nH]c2=O)cc1  21.7%
6. CC(=O)C1=C(O)C(=O)N(c2ccc(O)cc2)C1c1ccccc1F (stereo not shown)  18.8%
7. C/C(=N\NC(=O)c1nnn(-c2nonc2N)c1-c1ccc(Cl)c(Cl)c1)c1ccncc1  16.4%
8. O=C(Nc1ccccc1[N+](=O)[O-])C1COc2ccccc2O1 (stereo not shown)  14%
9. CC(=O)c1sc(NCCOc2ccc(C)cc2)nc1C  13.5%
10. COc1ccc(OCC(=O)Nc2ccc3c(c2)nc(CCNC(C)=O)n3C)cc1  13.1%
11. Cc1ccc(S(=O)(=O)N(CC(=O)Nc2cccc(N(C)S(C)(=O)=O)c2)c2ccc(Cl)c(Cl)c2)cc1  13%
12. CCn1c(Cc2ccc(OC)cc2)nnc1SCC(=O)Nc1nc2ccccc2s1  12.9%
13. O=C(c1cc(S(=O)(=O)N2CCCCC2)ccc1Cl)N1CCOCC1  12.7%
14. COc1ccc(-c2cc(-c3nnc(COC(=O)CC4CCCC4)o3)c3ccccc3n2)cc1OC  10.9%
15. COC(=O)CN1C(=O)CC(C)(C)Sc2ccccc21  10.3%
16. COC(=O)Cc1c(C)c2ccc(O)c(CNCc3ccc(OC)c(OC)c3)c2oc1=O.Cl  9.53%
17. O=C(Cn1nnc(-c2ccc(F)cc2)n1)OCC(=O)c1ccccc1  9.21%
18. O=C(CC1CCCCC1)Nc1nc2ccccc2s1  8.92%
19. COc1ccc(NC2=C(Cl)C(=O)N(CCc3ccccc3)C2=O)c(OC)c1  8.55%
20. Cc1ccc(C(=O)Nc2ccc3c(c2)nc(CCNC(=O)c2ccco2)n3C)cc1  8.06%
21. COc1cc(OC)cc(-c2c(C#Cc3ccsc3)c3cc(-c4ccc5c(c4)OCCO5)ccc3n2C)c1  7.37%
22. C=CCN(CCNP(=O)(OCC)OCC)CP(=O)(OCC)OCC  6.87%
23. Cc1ccc2oc(=O)n(CCOc3ccccc3)c2c1  6.35%
24. N#C/C(=C\c1ccc(N2CCCCC2)o1)C(=O)Nc1cccc(Br)c1  5.3%
25. CCOC(=O)Cn1cc(C(=O)c2ccccc2)c2ccccc21  5.11%
26. O=C(Nc1ccccc1Br)C1CCN(C(=O)Cc2ccccc2)CC1  5.05%
27. Cc1cccc(N2CCN(Cc3ccc4c(c3)OCO4)CC2)c1C  3.83%
28. CN(Cc1ccccc1)S(=O)(=O)c1ccc(N2CCOCC2)nc1  3.62%
29. Cc1ccc(NC(=O)[C@H](C)NC(=O)C2CCN(C(=O)[C@H](CC(C)C)NC(=O)OC(C)(C)C)CC2)cc1  2.93%
30. CCOC(=O)C1=C(COC(=O)C2CC(=O)N(c3ccccc3F)C2)NC(=O)NC1C (stereo not shown)  2.92%
31. C=CCN(C(=O)CNC(=O)c1ccco1)C(C(=O)NC1CCCCC1)c1ccccc1 (stereo not shown)  1.1%
32. CN1CCN(Cc2nc3ccccc3n2C)CC1  -0.083%
33. COc1ccc(C)c2sc(=NC(=O)C(C)C)n(C)c12  -0.259%
34. COc1ccc(NC(=O)C(c2ccc(C)cc2)N(C)C(=O)c2ccc(=O)[nH]c2)cc1 (stereo not shown)  -0.629%
35. Cc1ccccc1N1CCN(C(=S)c2ccccc2)CC1  -0.633%
36. COc1ccc(CC(=O)N2CC3(C)CC2CC(C)(C)C3)cc1 (stereo not shown)  -1.46%
37. CN1/C(=C\C(=O)CSc2ncn[nH]2)C(C)(C)c2ccccc21  -2.38%
38. O=C(CN1CCCC1)N/N=C/c1c(O)ccc2ccccc12  -3.45%
39. O=C(Nc1ccc2c(c1)OCCO2)C1c2ccccc2C(=O)N2CCc3ccccc3C12 (stereo not shown)  -3.51%
40. O=C(c1ccccc1)c1ccc2c(c1)OCCOCCOCCO2  -3.96%
41. CC(C)c1[nH]nc2c1C(c1cccc(OC(=O)N3CCOCC3)c1)C(C#N)=C(N)O2 (stereo not shown)  -4.01%
42. COC(=O)C1=C(C)N(CCc2ccccc2)C(=O)/C1=C\c1ccco1  -4.19%
43. COc1cc2c(cc1NC(=O)/C=C/c1cc(OC)c(OC)c(OC)c1)oc1ccccc12  -5.06%
44. Cc1ccc(S(=O)(=O)N2CCC(C(=O)N[C@@H](C)C(=O)NCC3CCCO3)CC2)cc1 (stereo partly shown)  -5.33%
45. C=CCN1C(=O)/C(=C/c2cc(C)n(-c3ccccn3)c2C)C(=O)NC1=S  -6.57%
46. CCCOc1ccc(C(=O)c2nc3c(n2O)CCCCC3)cc1  -7.16%
47. COc1cc2ncnc(NCc3ccc4c(c3)OCO4)c2cc1OC  -8.43%
48. Cc1ccc(NC(=O)c2cc(S(=O)(=O)N3CCOCC3)ccc2F)c(C)c1  -10.9%
49. CNC(=S)N1N=C(c2cccs2)CC1c1ccc(F)cc1 (stereo not shown)  -12.8%
50. O=C(O)c1cc(=O)cc(C(=O)O)[nH]1  -14.7%
51. CCN1CCN(CC(=O)Nc2ccc(C)c(Br)c2)CC1.Cl  -31.6%
52. COc1cccc2cc(C(=O)N3CCN(C/C=C/c4ccccc4)CC3)c(=O)oc12  -37.7%
53. CC(=O)CCc1ccc(OCC(O)CNC2CCCc3ccccc32)cc1.O=C(O)C(=O)O (stereo not shown)  -49%
54. CC1C(=O)N2CCCc3cc(S(=O)(=O)N4CCN(c5ccc(F)cc5)CC4)cc1c32 (stereo not shown)  -50.3%
55. COc1ccc(N2CCN(C(=O)c3ccccc3F)CC2)c([N+](=O)[O-])c1  -51.3%
